PubChem BioAssay AID488969 (Vanderbilt High Throughput Screening Facility, 2010)
Over roughly 110,000 compounds, “z-score” has its median near -0.1; the highest 2% begin near 2. The list shows a part of the results. The source made the active and inactive calls.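 Rule for the calls: active = z-score in the third read window above 3 or below -3; inactive = the rest.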

target: Metabotropic glutamate receptor 8 (Rattus norvegicus) (UniProt P70579); assay: rat mGluR8 modulators via GIRK flux, primary screen, cell-based, thallium flux, HTS (AID 488969); conditions: HEK293 rat mGluR8, GIRK (G protein-gated inwardly rectifying potassium channel) thallium flux, FluoZin2; at 10 µM; stronger effect = higher value; submaximal glutamate (EC20) added with thallium
Chain of UniProt P70579 (P70579 whole entry, looked up): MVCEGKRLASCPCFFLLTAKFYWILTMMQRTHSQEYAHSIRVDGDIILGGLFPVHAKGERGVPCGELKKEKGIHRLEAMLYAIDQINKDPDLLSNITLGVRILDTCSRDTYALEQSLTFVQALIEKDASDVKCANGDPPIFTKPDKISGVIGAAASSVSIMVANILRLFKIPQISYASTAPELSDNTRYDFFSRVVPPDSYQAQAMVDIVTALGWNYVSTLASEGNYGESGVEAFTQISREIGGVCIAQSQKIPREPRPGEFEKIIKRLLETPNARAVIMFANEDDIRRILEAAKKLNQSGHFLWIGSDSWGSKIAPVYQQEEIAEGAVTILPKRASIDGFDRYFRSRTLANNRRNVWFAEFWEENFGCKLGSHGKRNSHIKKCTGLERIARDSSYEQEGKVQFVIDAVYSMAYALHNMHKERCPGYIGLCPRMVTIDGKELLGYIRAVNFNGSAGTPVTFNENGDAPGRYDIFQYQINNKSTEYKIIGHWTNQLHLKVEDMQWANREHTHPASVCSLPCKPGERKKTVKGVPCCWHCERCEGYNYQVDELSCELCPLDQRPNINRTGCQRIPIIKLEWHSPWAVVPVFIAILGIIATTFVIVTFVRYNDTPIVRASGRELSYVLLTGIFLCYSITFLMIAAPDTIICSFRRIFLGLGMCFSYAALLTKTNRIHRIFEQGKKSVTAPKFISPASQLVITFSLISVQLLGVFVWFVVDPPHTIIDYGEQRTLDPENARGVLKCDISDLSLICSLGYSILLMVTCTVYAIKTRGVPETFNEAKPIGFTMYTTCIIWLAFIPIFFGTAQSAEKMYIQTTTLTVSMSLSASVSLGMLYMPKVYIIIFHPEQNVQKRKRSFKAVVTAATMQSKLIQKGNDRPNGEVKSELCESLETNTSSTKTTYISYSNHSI

Compound | z-score
O=C(O)C1CCCCC1C(=O)Nc1ccccc1Cl (centres undefined) | -0.189
CCOC(=O)c1nc(C)n(-c2cc(Cl)cc(Cl)c2)n1 | -0.0205
Cc1ccc(-n2ncc3c(NCCCN4CCOCC4)ncnc32)c(C)c1 | 0.473
COc1ccc([N+](=O)[O-])cc1NC(=O)C(C)N(C)Cc1ccc(Br)cc1 (centres undefined) | -0.255
COC(=O)C(NC(=O)c1ccc(F)cc1)(Nc1nc(C)cs1)C(F)(F)F (centres undefined) | -0.229
O=C(NCCCN1CCc2ccccc2C1)Nc1ccc(Br)cc1 | 0.628
Cc1onc(-c2ccccc2)c1C(=O)NC(=S)Nc1sc2c(c1C#N)CCCC2 | active: 4.1
CCOC(=O)C1CCN(C(=O)Cn2cc(C(=O)c3ccco3)c3ccccc32)CC1 | -0.153
CC(=O)Nc1sc2c(c1C(c1cccs1)N1CCOCC1)CCCC2 (centres undefined) | -0.586
COc1ccc(-c2nc(N)n[nH]2)cc1 | -0.101
CCn1c2ccccc2c2cc(NC(=O)COC(=O)c3ccccc3Br)ccc21 | 1.07
Cc1ccnc(NC(c2ccncc2)c2c(C)[nH]c3ccccc23)c1 (centres undefined) | -0.317
CS(=O)(=O)c1ccc(Sc2nc3ccccc3s2)c([N+](=O)[O-])c1 | -0.034
CCCc1ccc(OCCNC(=O)CC)cc1 | -0.143
O=C(O)C1CCN(S(=O)(=O)/C=C/c2ccccc2)CC1 | -0.424
CCOC(=O)c1sc(NC(C)=O)nc1C | 0.467
O=C(CN1C(=O)c2ccccc2C1=O)NCCc1c[nH]c2ccccc12 | -0.164
Cc1ccc(NC(=O)c2oc3ccc(S(=O)(=O)N4CCOCC4)cc3c2C)cc1C | 0.23
Cc1csc(SCCn2c(N3CCCC3)nc3c2c(=O)[nH]c(=O)n3C)n1 | 0.396
CCC(=O)N1CCc2cc(S(=O)(=O)NCCC(=O)Nc3cc(C)cc(C)c3)ccc21 | 0.573
Cc1cc(=O)[nH]c2ccccc12 | 0.0895
COc1cc2c(cc1OC)C(C(=O)NC1CC1)C1c3ccccc3CCN1C2=O (centres undefined) | 0.0421
COC(=O)/C=C\C(=O)Nc1cccc([N+](=O)[O-])c1 | -0.0799

Compound | z-score
O=C(CCCN1C(=O)CCC1=O)Nc1cccc(C(F)(F)F)c1 | -0.24
Cc1cc(C)cc(NC(=O)CSc2ccc(-c3ccco3)nn2)c1 | -0.426
CCC(C)(C(=O)NC1CCCC1)N(C(=O)c1cnccn1)c1ccccc1 (centres undefined) | -0.132
COc1ccc(OCCCC(=O)Nc2cccc(SC)c2)cc1 | 0.21
CCN(CC)CCNc1ccnc2cc(Cl)ccc12 | 1.13
CCN(CC)C(=O)Cn1c(=O)c2ccccc2n2c(=S)sc(-c3cccc(C)c3)c12 | -0.0444
CCNc1nc(NCC)n2c(SC(C)C(=O)c3ccc(C)cc3)nnc2n1 (centres undefined) | 0.295
CCC1(C)Cc2c(sc3nnn(Cc4ccccc4Cl)c(=O)c23)CO1 (centres undefined) | -0.181
COc1ccc(OC)c(-c2nnc(-c3ccc(C)o3)o2)c1 | 0.00649
Cn1c(-c2ccc3c(c2)OCO3)cnc1NCc1ccccc1 | -0.0491
Cc1nc2c(c3c1[nH]c1ccccc13)C(O)CC(C)(C)C2 (centres undefined) | 0.34
O=C(NCc1cccnc1)c1ccc(COc2cccc3ccccc23)o1 | 0.786
O=C(Nc1cccc(F)c1)N1CC=C(c2ccc(Cl)cc2)CC1 | -0.206
CCOC(=O)CSc1nc(C)c2ccccc2n1 | -0.33
COc1ccc(/C=N/OCC(=O)NC(c2ccccc2)c2ccccc2)cc1OC | -0.211
Cc1oc(C(=O)O)cc1COc1ccc2c(C)cc(=O)oc2c1 | -0.233
CCn1nc(NC(=O)c2ccncc2)c2cc3ccc(C)cc3nc21 | -0.292
COc1cc2c(cc1OC)C(c1ccc(-c3cc(Cl)ccc3Cl)o1)=NCC2 | -0.401
Cc1c(C(=O)NCc2cccs2)oc2ccccc12 | -0.531
O=C(N/N=C/c1ccc2c(c1)OCO2)c1ccc(Br)o1 | -0.0771
CCC(=O)N1CCN(c2ccc(NC(=O)c3cc4ccccc4o3)cc2)CC1 | -0.0586
CCc1nn2c(=O)cc(N3CCN(c4cc(C)nc5ccccc45)CC3)nc2s1 | -0.0623
N#Cc1cnc(SCC(=O)Nc2ccccc2C(F)(F)F)nc1N | -0.266

Compound | z-score
CSC1=NCCN1C(=O)c1ccco1 | 0.435
CCOC(=O)CSc1cc(CS(=O)c2ccc(Cl)cc2)nc(-c2ccccc2)n1 (centres undefined) | 0.0352
COc1ccc(/C=N/NC(=O)CCC(=O)Nc2ccccc2)cc1OC | 0.0251
CN(C)CC(C)(C)CNC(=S)Nc1ccc(S(=O)(=O)N2CCOCC2)cc1 | 0.179
CC(Oc1ccc(Cl)cc1Cl)C(=O)NCCCN1CCOCC1 (centres undefined) | -0.388
COc1ccnc(Oc2ccc3ccccc3c2)c1C#N | 0.0286
Cc1noc(C)c1CN1C(=O)NC2(CCCCCCC2)C1=O | -0.258
O=C1c2cc(N3CCCC3)c([N+](=O)[O-])cc2C(=O)N1c1ccccc1 | -0.0728
CCOc1ccc(C(=O)C[n+]2ccccc2C)cc1 | -0.0739
O=C(N1CCOCC1)N1CCN(S(=O)(=O)N2CCCCC2)CC1 | 0.052
Cn1cc(S(=O)(=O)N2CCN(c3ccccc3)CC2)c(=O)n(C)c1=O | -0.251
O=c1ncn(-c2cccc(F)c2)c2ncccc12 | -0.0987
O=C(Nc1ccc(Br)cc1)c1cccn1-c1ncc(C(F)(F)F)cc1Cl | -0.397
CCOc1ccc(C(=O)NC(=S)Nc2ccc(NC(=O)c3ccco3)cc2)cc1[N+](=O)[O-] | 0.282
COc1ccc(C(CC(=O)NCc2ccco2)c2ccc(F)cc2)cc1 (centres undefined) | -0.992
COc1ccc(C(=O)N/N=C(\C)Cn2nc([N+](=O)[O-])cc2C)cc1 | -0.183
O=C(Cn1cnc2ccccc2c1=O)Nc1cccc(-c2nnc3n2CCCCC3)c1 | -1.38
O=C(CSc1nc2ccccc2c(=O)n1-c1ccc(Cl)cc1)N/N=C/C=C/c1ccccc1[N+](=O)[O-] | -0.132
CCCc1c(C)c2c(C)[nH]nc2oc1=O | -0.229
CC(C)c1ccccc1NC(=O)COC(=O)Cc1c[nH]c2ccccc12 | 0.295
N#CCCN1CCN(C(=S)c2ccc(-c3cccc(Cl)c3)o2)CC1 | -0.185
N#C/C(C(=O)NCc1ccccc1)=C1/N=C(NC(=O)c2cccs2)c2ccccc21 | 0.0706
C=CCn1c(SCC(=O)NC)nc2sc3c(c2c1=O)CCC3 | -0.523

Compound | z-score
NCC(c1ccccc1)(c1ccccc1)c1ccccc1 | -0.398
N#Cc1ccc(N2C(=O)[C@@H]3C(C(=O)c4ccc5ccccc5n4)=NN[C@@H]3C2=O)cc1 | -0.208
C=CCc1ccc(OCCOCCNCCOC)c(OC)c1 | 0.267
Cc1cccc(NC(=O)C2CC(=O)NC(Nc3nc4ccccc4s3)=N2)c1 (centres undefined) | 0.371
O=S(=O)(Nc1nc2ccccc2nc1N1CCc2ccccc2C1)c1ccc(Cl)cc1 | 0.0945
COC(=O)CSc1nc(C(C)C)nc2ccccc12 | -0.577
CC(=O)N1c2ccc3ccccc3c2C(C)CC12CCCCC2 (centres undefined) | 1.11
CCc1c(C)[nH]c2c(C)cccc2c1=O | -0.337
CCN(CC)C(=O)c1sc(NC(=O)c2ccc3c(c2)OCO3)c(C#N)c1C | 0.387
CCOC(=O)C1CCCN(c2c(N3CCc4ccccc4C3)c(=O)c2=O)C1 (centres undefined) | -0.242
Cc1ccccc1N=Cc1cc2c(cc1[N+](=O)[O-])OCO2 | -0.121
CCCCOc1ccc(OC(=O)c2cccnc2)cc1 | -0.235
COc1ccc(C)cc1N(C(=O)c1cccc(F)c1)c1nc2ccccc2s1 | -0.071
CS(=O)(=O)N1CCN(c2ccccc2NC(=O)Cc2ccc(Cl)cc2)CC1 | -0.7
COc1ccccc1Nc1nc(=O)[nH]nc1C | 0.343
CCn1c(SCC(=O)Nc2nccs2)nnc1-c1ccccc1 | 0.00786
CCN(Cc1ccccc1)CC(O)COc1ccccc1 (centres undefined) | 0.411
CCOC(=O)CSc1nc2cc(C)ccc2cc1C#N | -0.369
COc1ccc2sc(SCCCS(=O)(=O)O)[n+](CCCS(=O)(=O)[O-])c2c1 | -0.199
CC1Cc2ccccc2N1C(=O)CSc1nnnn1C(C)C (centres undefined) | -0.364
CCOC(=O)c1sc(NC(=O)C(C)(C)C)cc1C | 0.0836
CCCCCOc1ccc(C(=O)NC(CCC)C(=O)O)cc1 (centres undefined) | -0.208
COc1ccccc1NC(=O)N1CCc2[nH]c3ccc(F)cc3c2C1 | 1.22

Compound | z-score
COc1cccc(CNCCO)c1OCc1ccccc1Cl | -0.209
Cc1ccc(C)c(N2CCN(C(=O)C3CCN(c4nc(C)cc(C)n4)CC3)CC2)c1 | -0.495
Cc1ccnc(NC(=O)CCC(=O)N(CC(=O)NCc2ccccc2)c2ccc3c(c2)OCO3)c1 | -0.744
Cc1ccc(-n2nc(CC#N)c(C#N)c2N)cc1 | -0.271
CC1=C(C(=O)OCC(C)C)C(c2ccsc2)NC(=O)N1 (centres undefined) | -0.356
O=[N+]([O-])c1ccc(/C=C2\CCC(C3=CCCC3)=C2N2CCOCC2)cc1 | 0.183
COC(=O)c1cc(CSc2nc3ccc(C)cc3[nH]2)oc1C | active: -4.79
CSc1nsc(SCc2ccc(F)cc2)n1 | -0.401
COc1ccc(CN(C(=O)c2ccco2)c2ccc(Br)cc2)cc1OC | -0.544
Cn1cccc1Cc1nnc(SCC(=O)Nc2ccccc2F)n1CCc1ccccc1 | -0.478
O=C(/C=C/Sc1ccccc1)c1ccc(Cl)cc1 | 0.341
Cc1ccccc1NC(=S)NC(=O)c1cncc(Br)c1 | active: 6.92
CCOC(=O)NCc1ccc(S(=O)(=O)Nc2ccc(C)cc2)cc1 | 0.21
CCCCN1C(=O)C(O)(CC(=O)c2c(C)n[nH]c2C)c2cc(Br)ccc21 (centres undefined) | -0.247
CC(C)N(C(=O)Cn1cnc2c(cnn2-c2ccccc2Cl)c1=O)C(C)C | 0.0448
CCSc1ccccc1C(=O)N1CCN(Cc2ccc3c(c2)OCO3)CC1 | 0.179
C#CCN1C(=O)S/C(=C/C=C/c2ccc(N(C)C)cc2)C1=O | -0.129
CCSc1ccccc1C(=O)Nc1cccc(OC)c1 | -0.621
COc1cc(/C=N/N=C2/NC(=O)C(CC(=O)O)S2)ccc1OCc1ccc(Cl)cc1 (centres undefined) | -0.357
Cc1cc(Cl)c(S(=O)(=O)N2CCSCC2)cc1OCC(N)=O | 0.0251
COC(=O)C1CSC(C(=O)OC)N1C(=O)Nc1ccccc1 (centres undefined) | -0.135
Cc1ccc(N(C(=O)c2csnn2)C(C(=O)NC(C)(C)C)c2cccs2)cc1 (centres undefined) | 0.462
